Where a chain is given by its changes, count along the chain named. No constants are given. Whether binding was seen depends on the method and setting. In cells and extracts the contact can be indirect. Some binding calls cover weakened binding; strength is not graded here. Sequences can lack the tags named with a protein.
Columns and labels:
Assay in all cases: co-IP; GFP-Trap_MA magnetic beads (ChromoTek) with 300 ug lysate of HeLa cells transiently expressing GFP or GFP-NUP88 variants (48 h); 1 h at 4 C; 10 mM Tris/HCl pH 7.5, 150 mM NaCl, 0.5 mM EDTA; washes with 150, 250 and 500 mM NaCl; Western blot for endogenous NUP214, NUP62, NUP98
[1] = biological target: T1, GFP-NUP88 p.D434Y (human) (UniProt Q99567)
T1 sequence: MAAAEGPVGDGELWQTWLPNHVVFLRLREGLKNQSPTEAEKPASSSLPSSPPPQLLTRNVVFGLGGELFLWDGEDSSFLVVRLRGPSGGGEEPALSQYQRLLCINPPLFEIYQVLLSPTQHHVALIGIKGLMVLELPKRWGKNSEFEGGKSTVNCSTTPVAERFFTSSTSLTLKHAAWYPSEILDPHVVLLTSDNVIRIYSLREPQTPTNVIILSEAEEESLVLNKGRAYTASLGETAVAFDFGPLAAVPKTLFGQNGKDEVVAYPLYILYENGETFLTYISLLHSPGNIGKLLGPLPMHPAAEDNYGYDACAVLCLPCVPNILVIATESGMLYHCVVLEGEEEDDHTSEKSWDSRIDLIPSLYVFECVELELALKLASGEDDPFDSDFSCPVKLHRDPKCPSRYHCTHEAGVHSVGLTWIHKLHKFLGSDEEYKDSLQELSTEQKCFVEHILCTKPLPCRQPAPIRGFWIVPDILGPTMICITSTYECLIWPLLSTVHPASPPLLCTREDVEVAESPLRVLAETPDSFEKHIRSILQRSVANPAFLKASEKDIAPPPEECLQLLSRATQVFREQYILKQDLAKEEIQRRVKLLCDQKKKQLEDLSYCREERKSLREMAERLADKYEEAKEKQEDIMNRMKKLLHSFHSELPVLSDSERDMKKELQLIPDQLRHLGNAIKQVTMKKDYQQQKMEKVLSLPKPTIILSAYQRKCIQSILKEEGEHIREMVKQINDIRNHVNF

By UniProt entry, the sequences of proteins in these tests, tags left out. Residues count along the entry.
UniProt P52948, residues 1-880: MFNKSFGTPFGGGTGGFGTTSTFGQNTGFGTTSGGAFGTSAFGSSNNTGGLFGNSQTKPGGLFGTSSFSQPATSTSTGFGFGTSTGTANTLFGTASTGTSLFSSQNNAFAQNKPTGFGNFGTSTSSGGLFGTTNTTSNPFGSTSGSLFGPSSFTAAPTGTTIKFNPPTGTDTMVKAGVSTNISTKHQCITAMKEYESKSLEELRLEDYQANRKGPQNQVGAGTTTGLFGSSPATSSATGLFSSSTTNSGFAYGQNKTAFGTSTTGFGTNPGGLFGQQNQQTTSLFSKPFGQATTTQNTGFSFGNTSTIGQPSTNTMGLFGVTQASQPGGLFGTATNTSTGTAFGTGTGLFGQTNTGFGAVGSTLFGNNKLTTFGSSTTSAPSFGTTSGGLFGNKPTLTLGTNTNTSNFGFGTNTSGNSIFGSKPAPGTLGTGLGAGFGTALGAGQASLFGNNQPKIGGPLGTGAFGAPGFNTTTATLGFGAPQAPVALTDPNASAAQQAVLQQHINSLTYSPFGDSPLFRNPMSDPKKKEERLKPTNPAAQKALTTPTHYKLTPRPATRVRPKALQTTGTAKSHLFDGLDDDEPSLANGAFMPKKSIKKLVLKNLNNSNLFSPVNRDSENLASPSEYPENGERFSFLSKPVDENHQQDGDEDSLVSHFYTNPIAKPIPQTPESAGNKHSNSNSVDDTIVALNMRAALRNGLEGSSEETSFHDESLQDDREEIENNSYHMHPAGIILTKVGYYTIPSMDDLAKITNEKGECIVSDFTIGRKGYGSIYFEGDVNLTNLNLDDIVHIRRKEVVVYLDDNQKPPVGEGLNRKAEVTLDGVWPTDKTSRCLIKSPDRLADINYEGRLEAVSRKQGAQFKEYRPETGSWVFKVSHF
UniProt P37198: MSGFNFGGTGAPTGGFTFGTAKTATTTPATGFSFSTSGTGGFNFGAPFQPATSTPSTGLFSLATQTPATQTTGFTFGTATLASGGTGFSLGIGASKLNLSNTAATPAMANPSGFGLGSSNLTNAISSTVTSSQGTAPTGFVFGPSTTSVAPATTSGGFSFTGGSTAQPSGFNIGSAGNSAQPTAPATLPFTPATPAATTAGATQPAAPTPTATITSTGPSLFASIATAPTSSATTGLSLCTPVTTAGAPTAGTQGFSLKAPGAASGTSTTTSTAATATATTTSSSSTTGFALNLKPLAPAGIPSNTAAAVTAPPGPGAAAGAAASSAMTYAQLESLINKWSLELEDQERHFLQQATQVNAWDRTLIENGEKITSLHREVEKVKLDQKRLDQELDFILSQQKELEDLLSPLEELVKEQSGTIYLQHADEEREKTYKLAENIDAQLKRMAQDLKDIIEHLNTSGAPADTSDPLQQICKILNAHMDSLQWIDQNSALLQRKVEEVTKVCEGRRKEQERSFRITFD

[2] = biological target: T2, GFP-NUP88 p.R509* (human) (UniProt Q99567)
T2 sequence: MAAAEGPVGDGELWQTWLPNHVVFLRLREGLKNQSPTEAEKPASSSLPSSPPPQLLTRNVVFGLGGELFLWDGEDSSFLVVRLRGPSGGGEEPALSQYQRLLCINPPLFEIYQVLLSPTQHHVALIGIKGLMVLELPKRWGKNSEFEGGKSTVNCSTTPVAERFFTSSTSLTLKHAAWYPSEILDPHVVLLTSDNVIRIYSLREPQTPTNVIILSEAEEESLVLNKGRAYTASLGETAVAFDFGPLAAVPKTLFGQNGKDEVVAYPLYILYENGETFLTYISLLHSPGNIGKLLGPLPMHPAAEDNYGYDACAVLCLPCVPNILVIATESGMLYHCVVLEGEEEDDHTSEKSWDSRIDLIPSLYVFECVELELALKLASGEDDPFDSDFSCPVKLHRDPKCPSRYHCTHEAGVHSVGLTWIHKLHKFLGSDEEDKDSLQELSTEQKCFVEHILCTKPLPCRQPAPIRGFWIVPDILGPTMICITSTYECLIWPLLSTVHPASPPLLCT

[3] = biological target: T3, GFP-NUP88 wild-type (human) (UniProt Q99567)
T3 sequence: T1 sequence with Y434D

[4] = biological target: T4, GFP-NUP88 p.E634del (human) (UniProt Q99567)
T4 sequence: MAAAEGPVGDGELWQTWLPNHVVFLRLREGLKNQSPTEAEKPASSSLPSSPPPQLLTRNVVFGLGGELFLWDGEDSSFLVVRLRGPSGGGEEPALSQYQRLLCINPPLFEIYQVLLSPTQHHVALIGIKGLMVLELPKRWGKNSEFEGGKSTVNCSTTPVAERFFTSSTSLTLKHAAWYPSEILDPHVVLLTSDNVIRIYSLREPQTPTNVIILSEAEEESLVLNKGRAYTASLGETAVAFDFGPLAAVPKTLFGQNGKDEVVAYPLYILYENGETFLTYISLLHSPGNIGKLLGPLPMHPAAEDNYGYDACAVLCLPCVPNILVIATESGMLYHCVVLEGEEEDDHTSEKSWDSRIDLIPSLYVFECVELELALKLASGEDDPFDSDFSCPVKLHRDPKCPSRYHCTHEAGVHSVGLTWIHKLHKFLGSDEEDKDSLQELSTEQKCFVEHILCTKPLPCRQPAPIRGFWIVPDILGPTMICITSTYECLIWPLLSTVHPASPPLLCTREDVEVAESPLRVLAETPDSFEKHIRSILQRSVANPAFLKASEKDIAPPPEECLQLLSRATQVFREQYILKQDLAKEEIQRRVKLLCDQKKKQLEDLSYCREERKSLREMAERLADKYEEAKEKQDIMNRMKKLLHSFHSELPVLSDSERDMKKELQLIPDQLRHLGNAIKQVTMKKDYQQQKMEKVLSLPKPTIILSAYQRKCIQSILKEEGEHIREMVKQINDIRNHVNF

binding [1]	binding [2]	binding [3]	binding [4]	Substance
binds	binds	binds	binds	NUP98 (from UniProt P52948 1-880)
binds	no binding	binds	no binding	NUP62 (from UniProt P37198 1-522)

Source: PMC6307818
